Reference: patent US20070224633A1 (Pieris, published 2007)

Assays:
[1] = molecular target: T1, human CD25 on CHO-K1 cells transfected with CD25-pcDNA3.1Zeo(+) (human, UniProt P01589 22-272); assay: flow cytometry on CHO cells expressing human CD25, fluorescein-labelled protein
T1 construct: also called CHO-CD25; CHO cell line expressing human CD25
T1 sequence: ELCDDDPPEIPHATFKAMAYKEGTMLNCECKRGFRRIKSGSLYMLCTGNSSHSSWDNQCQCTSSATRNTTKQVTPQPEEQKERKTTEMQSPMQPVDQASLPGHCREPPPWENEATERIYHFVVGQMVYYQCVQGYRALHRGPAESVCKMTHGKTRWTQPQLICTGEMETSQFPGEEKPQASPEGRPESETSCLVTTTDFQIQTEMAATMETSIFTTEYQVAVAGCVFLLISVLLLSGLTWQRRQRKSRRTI
Description: The mutein S67.7 C6 was tested for specific binding to a CHO cell line expressing human CD25 in a flow cytometry assay. For this purpose, the CD25-pcDNA3.1Zeo(+)- or pcDNA3.1Zeo(+)-transfected CHO cells described in Example 15 were detached from culture flasks with 0.2% w/v EDTA. Approximately 200,000 cells were resuspended in 30 μl PBS/2% v/v FCS and incubated with 10 μg S67.7 C6 obtained as described in Example 13 and labeled with fluorescein (Fluorescein-5(6)-carboxamido caproic acid N-succinimidyl ester; Fluka) at an equimolar ratio based on the protocol described in Schlehuber and Skerra (Biol. Chem. (2001) 382, 1335-1342). As a negative control, 10 μg of the recombinant wild type TLPC encoded by pTLPC8 and labeled with fluorescein at an equimolar ratio was employed. CD25 expression was confirmed with FITC-labeled anti-CD25 mAb (Acris, DM519F), using FITC-labeled IgG1 (Acris, SM10F) as isotype control. After 30 min incubation on ice, cells were washed twice with PBS/2% v/v FCS prior to analysis by flow cytometry using a FACSCalibur (Becton Dickinson).

[2] = molecular target: T2, human CD154 on CHO-K1 cells transfected with CD154-pcDNA3.1Zeo(+) (human, UniProt P29965 1-261); assay: flow cytometry on CHO cells expressing human CD154, fluorescein-labelled protein
T2 construct: also called CHO-CD154; CHO cell line expressing human CD154
T2 sequence: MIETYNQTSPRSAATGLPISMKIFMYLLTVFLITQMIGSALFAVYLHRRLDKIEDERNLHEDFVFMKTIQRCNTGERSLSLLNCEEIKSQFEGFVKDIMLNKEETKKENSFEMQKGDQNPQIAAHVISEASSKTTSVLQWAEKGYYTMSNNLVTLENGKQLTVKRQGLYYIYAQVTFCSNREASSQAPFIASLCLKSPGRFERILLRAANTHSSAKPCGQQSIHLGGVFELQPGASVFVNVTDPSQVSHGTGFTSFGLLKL
Description: The mutein F92.8 M1.2 E15 was tested for specific binding to a CHO cell line expressing human CD25 in a flow cytometry assay. For this purpose, the CD25-pcDNA3.1 Zeo(+)- or CD154-pcDNA3.1Zeo(+)-transfected CHO cells described in Examples 15 and 22, respectively were detached from culture flasks with 0.2% w/v EDTA. Approximately 200,000 cells were resuspended in 30 μl PBS/2% v/v FCS and incubated with 2.5 μg of monomeric F92.8 M1.2 E15 fraction obtained as described in Example 20 and labeled at a twofold molar ratio with fluorescein (Fluorescein-5(6)-carboxamido caproic acid N-succinimidyl ester; Fluka) based on the protocol described in Schlehuber and Skerra (supra). As a negative control, 2.5 μg of the recombinant wild type TLPC encoded by pTLPC8 and labeled with fluorescein at a twofold molar ratio was employed. CD25 expression was confirmed with FITC-labeled anti-CD25 mAb (Acris, DM519F), using FITC-labeled IgG1 (Acris, SM10F) as isotype control. After 30 min incubation on ice, cells were washed twice with PBS/2% v/v FCS prior to analysis by flow cytometry using a FACSCalibur (Becton Dickinson).

binding result [1]: no binding (tested: 10 µg in 30 µl)
binding result [2]: no binding (tested: 2.5 µg in 30 µl)
B1: recombinant wild type TLPC encoded by pTLPC8 (other)
chain: DGGEEIQDVSGTWYLKAMTVDREFPEMNLESVTPMTLTTLEGGNLEAKVTMLISGRCQEVKAVLEKTDEPGKYTADGGKHVAYIIRSHVKDHYIFYSEGQLHGKPVRGVKLVGRDPKNNLEALEDFEKAAGARGLSTESILIPRQSETCSPGDASMTGGQQMGSAWSHPQFEK
modifications: labeled with fluorescein (equimolar ratio in Example 16, twofold molar ratio in Example 23); sites not stated
notes: In the modified lipocalin the first four and last two residues of the mature protein are deleted; Positions 5-7 are changed to GGD, with Cys101Ser and Glu104Gln
